# The other results are listed elsewhere or left out. Values were computed here from the reads of four pooled replicates and scatter widely.
# Target: T1, Pho4 (S. cerevisiae) (UniProt P07270)
# T1 sequence: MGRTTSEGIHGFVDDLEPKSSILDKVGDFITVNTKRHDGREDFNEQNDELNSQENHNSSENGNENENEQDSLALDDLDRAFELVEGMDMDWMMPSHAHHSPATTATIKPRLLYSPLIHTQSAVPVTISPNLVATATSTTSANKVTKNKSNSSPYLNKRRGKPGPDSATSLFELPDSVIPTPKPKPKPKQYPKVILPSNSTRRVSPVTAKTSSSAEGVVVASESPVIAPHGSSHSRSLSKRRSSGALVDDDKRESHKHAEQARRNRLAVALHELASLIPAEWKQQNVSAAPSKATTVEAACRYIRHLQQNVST
# Assay: relative binding free energy (BET-seq); higher = weaker binding
# Settings: reference: library average
row,Sequence,relative binding free energy [kcal/mol]
1,AGTAGCACGTGGTAAG,-0.19
2,GTAGACACGTGTTTGA,0.07
3,ATAAGCACGTGAGGTG,0.25
4,ATCAACACGTGGTGTT,-0.18
5,AGCTGCACGTGTTTTG,0.08
6,TGTGTCACGTGGAAGC,0.07
7,GGGTGCACGTGAGATT,0.35
8,TGTGACACGTGGTATC,-0.1
9,TATGTCACGTGTTAAA,-0.02
10,TGGCCCACGTGTTGGG,-0.08
11,GAGCTCACGTGAGTGT,0.38
12,TGTGGCACGTGTGACG,0.01
13,CGGATCACGTGAGGTA,0.34
14,GGAGTCACGTGCAGTG,0.19
15,ATGTTCACGTGTTTTA,0.23
16,GGATGCACGTGGTTAT,0.01
17,GTAAGCACGTGGGTAT,-0.08
18,GGTTACACGTGGATTC,0.22
19,AAGAGCACGTGGAAGT,0.06
20,TTCAACACGTGGTAGT,0.02
21,GGATACACGTGGTAAT,0
22,TGTCGCACGTGTAGGA,-0.02
23,GATGGCACGTGTAGCT,0.03
24,GGTAACACGTGCGTGT,0.14
25,TGGTTCACGTGTAGTC,0.28
26,TTGTCCACGTGCATTT,0.18

row,Sequence,relative binding free energy [kcal/mol]
1,TTCCGCACGTGGTTGG,-0.11
2,TGTTACACGTGGCTGT,0.02
3,GTGACCACGTGGTTTT,-0.02
4,GTTGACACGTGAGTTT,0.25
5,GGGATCACGTGTGCGA,0.32
6,CCGGGCACGTGGGTTG,-0.31
7,TGGCACACGTGTGAAA,0.34
8,GTTGACACGTGTGTGC,0.13
9,ATTTACACGTGACGTG,0.12
10,GTGCTCACGTGGTTAT,0.25
11,ACGTGCACGTGCTGTG,-0.19
12,CTTTTCACGTGTGTGT,0.26
13,TGCGACACGTGGGTCG,-0.11
14,TGGGACACGTGTGACG,0.15
15,TGAAACACGTGGTTAA,-0.05
16,GGCGGCACGTGGTCGA,-0.14
17,TGTGGCACGTGTAATT,0.08
18,TTAATCACGTGGGGAG,0.05
19,TGGTCCACGTGTGCTT,0.05
20,ATTGGCACGTGTGATG,0.03
21,TTCGGCACGTGTTATA,-0.07
22,TTTTTCACGTGTTCGT,0.2
23,AGGGTCACGTGAGGGG,0.28
24,TATGTCACGTGAATGC,0.28
25,AATTTCACGTGGCGGT,0.09
26,GTCGGCACGTGGTTAG,-0.04

row,Sequence,relative binding free energy [kcal/mol]
1,GCTAGCACGTGGTTCG,0.07
2,GAGGACACGTGGGCGT,0.02
3,AGTGTCACGTGTCGAT,0.14
4,ATTTGCACGTGAATGT,0.31
5,GAATTCACGTGGGGGA,0.23
6,TTTGGCACGTGAGACT,0.06
7,TTGAACACGTGGGGAA,0.01
8,TACTGCACGTGTGGTG,-0.03
9,TGTTTCACGTGGTAAA,0.26
10,GAGGTCACGTGATAGG,0.12
11,TATTGCACGTGGGTAC,-0.19
12,ATGCGCACGTGTTTTA,-0.09
13,GTGGTCACGTGAGTGT,0.32
14,TATATCACGTGGTTTC,0.13
15,AAATGCACGTGAGGAA,0.27
16,GTAGTCACGTGTGGTA,0.29
17,TAAGTCACGTGCTTGT,-0.01
18,TCGTACACGTGGTGTG,-0.16
19,TGTTTCACGTGTGCTA,0.32
20,AATTGCACGTGGGATT,-0.03
21,TGCACCACGTGGGTGG,-0.29
22,GTATGCACGTGTATCG,0.11
23,GTTATCACGTGTGTAA,0.14
24,TAATACACGTGGTAGA,0.01
25,ATTGGCACGTGTTGAA,0.04
26,GGGCTCACGTGGTTAG,0.27

row,Sequence,relative binding free energy [kcal/mol]
1,TAGAACACGTGTAGTG,-0.11
2,AGGCTCACGTGGATAG,0.29
3,ATCTGCACGTGGATGT,-0.03
4,GGGCCCACGTGTTGGT,-0.01
5,AATGTCACGTGGGTTC,0
6,GTAGCCACGTGGAGGT,-0.09
7,TGGTGCACGTGGCGGA,-0.13
8,ATCGTCACGTGGGCGT,-0.02
9,TTTAGCACGTGTTCAT,-0.05
10,TTTGGCACGTGCTGTG,-0.1
11,GCAGGCACGTGTGGGG,-0.09
12,TTTCTCACGTGTGCAG,0.31
13,CAATTCACGTGAGGGT,0.53
14,AACTTCACGTGGTGGT,0.28
15,TATCGCACGTGGCGTG,-0.17
16,TCAGTCACGTGAGGGG,0.26
17,CCTGTCACGTGTGGTA,0.02
18,ATAGACACGTGGTTGG,0.06
19,CGCTTCACGTGTATGT,0.15
20,AGTTTCACGTGGAGGA,0.32
21,AATAACACGTGTGGGA,0.02
22,GGGTGCACGTGCGGAC,0
23,TGTCACACGTGTGTGT,0
24,GTTTTCACGTGAGGCA,0.54
25,ATATACACGTGGTGTG,-0.06
26,AAGGTCACGTGTGGTT,0.11

row,Sequence,relative binding free energy [kcal/mol]
1,TCTCGCACGTGATGGG,0.01
2,TTGGACACGTGAATTG,0.45
3,GAATTCACGTGGGCGT,0.27
4,CGGTGCACGTGGACGG,-0.04
5,GATGTCACGTGATGGC,0.32
6,TTGTTCACGTGACGGG,0.5
7,AGTGGCACGTGTTAGG,-0.07
8,TGGCGCACGTGGGGCT,-0.16
9,TTGAACACGTGGCGGT,0.04
10,GTAGACACGTGTAGCG,0.05
11,ACGGGCACGTGTTAGG,-0.15
12,AGGGCCACGTGAAAGG,0.22
13,GAGTGCACGTGGGGCT,-0.12
14,CGTTGCACGTGGTTAG,-0.1
15,AGCATCACGTGGTGTA,0.01
16,TAGGGCACGTGAAATT,0.29
17,AGGGTCACGTGGTGAC,-0.01
18,GGGGTCACGTGACTTT,0.25
19,ATGCGCACGTGGTCGT,-0.24
20,GTTTCCACGTGTGGTT,0.3
21,GTCGTCACGTGAAATG,0.37
22,ATTGACACGTGGGGTG,-0.21
23,ACTGTCACGTGAGTTG,0.26
24,AAGTACACGTGTAAGT,0.26
25,TTATACACGTGGTACG,-0.12
26,GGTAGCACGTGGCTTG,-0.04

row,Sequence,relative binding free energy [kcal/mol]
1,GCCGGCACGTGTGTGT,-0.18
2,GATGTCACGTGGCGGA,0.1
3,AGAGTCACGTGCAGGT,0.11
4,TCTCTCACGTGATGGT,0.23
5,AGATGCACGTGGCGGA,-0.11
6,TAAGTCACGTGGCATG,-0.01
7,TGGGCCACGTGGACGT,-0.06
8,TGTCGCACGTGTGTGG,-0.12
9,GCAGGCACGTGGAGGA,-0.15
10,GATGTCACGTGCGTAG,0.09
11,GTTAACACGTGGTGCG,-0.06
12,CTCATCACGTGGGGTT,-0.03
13,TGCGACACGTGATGGA,0.24
14,TGAGTCACGTGTTGTC,0.19
15,TTAGTCACGTGTGTGA,0.12
16,TGGAGCACGTGTTATC,-0.06
17,TAGTTCACGTGACAGG,0.27
18,TATAACACGTGGACGG,0.13
19,CGGGACACGTGATGTT,0.15
20,ATTGTCACGTGTGCTC,0.15
21,ATAACCACGTGGGGGG,-0.13
22,GGTCGCACGTGCTGGT,-0.15
23,TTATGCACGTGTTTGT,-0.07
24,GTGATCACGTGTTTCG,0.26
25,TGTTACACGTGTGGCA,0.09
26,CTTAACACGTGGCAGT,0.25

row,Sequence,relative binding free energy [kcal/mol]
1,ACGGTCACGTGTATGG,0.05
2,GGTTGCACGTGTAGGA,0.1
3,TGGAACACGTGGTGGC,-0.02
4,TAGATCACGTGCAGGG,0.07
5,GTAGCCACGTGGGGCG,-0.23
6,AGGGGCACGTGTAGTT,-0.01
7,GCGTTCACGTGGCATG,0.33
8,CGTGGCACGTGGTCGG,-0.15
9,GGTAACACGTGCTTGT,0.08
10,GTAATCACGTGCCGGT,0.22
11,TTGCACACGTGTAATT,0.24
12,GTGCTCACGTGCGGGC,0.19
13,AGTGTCACGTGATGTC,0.16
14,GGCATCACGTGGGTAG,0.15
15,AGGGGCACGTGGGGTG,-0.23
16,GGGGTCACGTGTCATG,0.2
17,AAGGGCACGTGCGGTC,-0.09
18,ATGGTCACGTGGTACA,-0.02
19,GGCGTCACGTGGGTAA,0.06
20,GGAGGCACGTGCGGTG,-0.07
21,GTTTGCACGTGAATCG,0.14
22,TGGGTCACGTGGATTA,0.15
23,GCGGACACGTGAGGTG,0.12
24,TTGGTCACGTGTAGCA,0
25,TACGTCACGTGTTATA,0.04
26,GTATTCACGTGTCAAT,0.23

row,Sequence,relative binding free energy [kcal/mol]
1,TCTCACACGTGGGGTG,-0.1
2,GACGCCACGTGGGGGG,-0.29
3,CGATGCACGTGAGGTA,0.25
4,TAGGGCACGTGTGGAG,-0.04
5,CACGGCACGTGGTGAG,0.07
6,ATGTTCACGTGTGTTG,0.21
7,TGTATCACGTGGAGTA,0.04
8,GGCTTCACGTGCGTTG,0.26
9,TTTGTCACGTGAAACG,0.28
10,TGTTACACGTGTCTAT,-0.01
11,TGTGTCACGTGTACAG,-0.01
12,TTGCTCACGTGGAGGA,0.18
13,GTTTACACGTGATGAG,0.25
14,GGAGTCACGTGCACGG,0.2
15,TGGCACACGTGATGAT,0.31
16,GCGGTCACGTGATTTG,0.32
17,TGTTACACGTGAAAGA,0.37
18,GAGAGCACGTGGCGTT,-0.12
19,GCTGTCACGTGGATGT,0.21
20,GGTAACACGTGGTATG,-0.06
21,TGTCGCACGTGGGTTT,-0.21
22,TGGGGCACGTGTGAAC,-0.07
23,GGCAGCACGTGATGGT,0.12
24,CGTGGCACGTGCGTAT,-0.15
25,GTATGCACGTGGGGGG,-0.13
26,AACGGCACGTGGGTGA,-0.28

row,Sequence,relative binding free energy [kcal/mol]
1,ATGGTCACGTGAAGGT,0.22
2,CTGATCACGTGTGATT,0.3
3,AATGACACGTGAATGT,0.18
4,CAAGGCACGTGGTTTG,-0.16
5,AGGATCACGTGGGGCT,0
6,TTGGGCACGTGAGTCA,0.15
7,GCGCTCACGTGGGTCG,0.25
8,TGTGGCACGTGTCGGG,-0.07
9,AGTGGCACGTGCGATT,-0.18
10,TAAAGCACGTGTGGAT,-0.03
11,AAGGTCACGTGAAGGT,0.26
12,TTTATCACGTGTTTCG,0.19
13,AGTTGCACGTGTTCGG,-0.01
14,GGGGGCACGTGAATAA,0.08
15,TTGTCCACGTGATTAT,0.3
16,TTAGGCACGTGAGGGG,0.14
17,TGTCACACGTGGTTTA,0
18,TGTTTCACGTGACTGA,0.47
19,AAGGACACGTGAGTTT,0.23
20,AGTGGCACGTGAGGTG,0.1
21,ATGGTCACGTGTGAGC,0.11
22,CGGATCACGTGGATGG,0.05
